{
  "source": "PubChem BioAssay (NCATS)",
  "note": "Inconclusive results, whose numbers are uncertain, are shown with a selection of clear calls. For some of these results: Potencies beside an inconclusive call are fits to weak or partial responses and may not hold up. Calls of active or inactive are those of the source. Unless noted, calls come from the whole dose curve; as a rule, active = well fitted inhibition curve with a large enough effect; inconclusive = small, poorly fitted or top-dose-only effect; inactive = flat fitted curve, though single readings scatter. % is set by controls: 0 for no effect and ±100 for the full control effect; tags give direction and shape of the fitted curve.",
  "data": [
    {"experiment": "AP1 Signaling Pathway (AID 357; active = well fitted curve in either direction with a large enough effect, not every such curve was filed as active; inconclusive = small, poorly fitted or top-dose-only effect, or another doubt; note: top concentration of the series differs between compounds)", "conditions": "ME-180 AP-1-bla reporter, EGF-induced, beta-lactamase ratio, 5 h; at 17.2 µM (top of the series) unless noted", "how_it_was_run": "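Cells are seeded overnight, exposed to compound titrations and an EC50 level of EGF for 5 hours at 37 °C, then loaded with CCF4 dye for 2.5 hours. Beta-lactamase activity under the AP-1 element is read as a blue/green ratio.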", "values": [
      {"smiles": "CC(C)COc1nc2ccccc2nc1C(C#N)C(=O)NC1CCCCC1", "note": "(stereo not given)", "activity change, negative = inhibition": "inactive: -1.14%"},
      {"smiles": "O=C(O)Cc1c[nH]c2ccc(F)cc12", "activity change, negative = inhibition": "inactive: 0.0381% [at 7.69 µM]"},
      {"smiles": "CC1(C)Cc2c(C#N)c(OCC(=O)c3ccc(Cl)cc3)nc(-c3ccoc3)c2CO1", "activity change, negative = inhibition": "inconclusive: 38.4% [activator]"},
      {"smiles": "O=C(O)CSc1ccc(N=C=S)cc1", "activity change, negative = inhibition": "inactive: 7.13% [at 7.69 µM]"},
      {"smiles": "CCOc1ccc(-c2nnc3sc(COc4ccccc4)nn23)cc1", "activity change, negative = inhibition": "inconclusive: 67.8% [activator]"},
      {"smiles": "CC(C)/C(=N/[N+](C)(C)C)c1ccccc1", "activity change, negative = inhibition": "inactive: 3.83% [at 7.69 µM]"},
      {"smiles": "C[C@H](OP(=O)(O)O)[C@H](N)C(=O)O", "activity change, negative = inhibition": "inactive: 0.907% [at 7.69 µM]"},
      {"smiles": "COc1cc(C2C(C#N)=C(N)Oc3cc(C)n(CCN4CCOCC4)c(=O)c32)cc(OC)c1OC", "note": "(stereo not given)", "activity change, negative = inhibition": "inactive: 10.6%"},
      {"smiles": "COc1ccc(Oc2ncc3nc(-c4ccc(OC)cc4)c(=O)n(CCC#N)c3n2)cc1", "activity change, negative = inhibition": "inconclusive: -43.8% [inhibitor] [at 7.69 µM]"},
      {"smiles": "Nc1nnc(CC2=CCCCC2)s1", "activity change, negative = inhibition": "inactive: 1.59%"},
      {"smiles": "Nn1c(SCC(=O)Nc2ccc3c(c2)OCCO3)nnc1C(F)(F)F", "activity change, negative = inhibition": "inactive: 3.25%"},
      {"smiles": "CCCCCOc1ccccc1C(=O)NCCCC(=O)O", "activity change, negative = inhibition": "inactive: 2.16%"},
      {"smiles": "c1ccc2c(c1)[nH]c1c(N3CCSCC3)ncnc12", "activity change, negative = inhibition": "inactive: -11.4%"},
      {"smiles": "CC(C)(C)c1cc2c(O)c(c1)Cc1cc(C(C)(C)C)cc(c1O)Cc1cc(C(C)(C)C)cc(c1O)Cc1cc(C(C)(C)C)cc(c1O)Cc1cc(C(C)(C)C)cc(c1O)Cc1cc(C(C)(C)C)cc(c1O)Cc1cc(C(C)(C)C)cc(c1O)Cc1cc(C(C)(C)C)cc(c1O)C2", "activity change, negative = inhibition": "inactive: 6.61% [at 7.69 µM]"},
      {"smiles": "COc1ccccc1CN1CCCC2(CCNCC2)C1", "activity change, negative = inhibition": "inactive: -7.6% [at 7.69 µM]"},
      {"smiles": "Cc1ccc(C2C(C(=O)c3cc4ccccc4o3)=C(O)C(=O)N2CCN(C)C)o1", "note": "(stereo not given)", "activity change, negative = inhibition": "inactive: -1.56%"},
      {"smiles": "O=C(NCCCN1CCOCC1)C1(c2ccccc2)CCOCC1", "activity change, negative = inhibition": "inactive: 3.71%"},
      {"smiles": "Cn1c([N+](=O)[O-])cnc1CN1CCN(CCO)CC1", "activity change, negative = inhibition": "inactive: 11% [at 7.69 µM]"}
    ]},
    {"experiment": "qHTS Assay for Inhibitors of Fructose-1,6-bisphosphate Aldolase from Giardia Lamblia: Coupling assay counterscreen confirmation (AID 2795); note: nearly all actives have a fitted effect of over 55% in size; note: potency is the fitted concentration of half-maximal effect", "conditions": "GAPDH coupling enzyme counterscreen, biochemical; series mostly up to 57.5 µM; activity change, negative = inhibition: at the top concentration", "how_it_was_run": "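Coupling enzymes were first exposed to test compounds (final up to 57.5 uM) for 10 min at room temperature. A substrate plus coupling-system plus AmpLite Red mixture was then added, and after 20 more minutes fluorescence was measured at 525/598 nm.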", "values": [
      {"smiles": "O=C(O)CC(Cn1[nH]nnc1=S)c1ccccc1", "note": "(stereo not given)", "activity change, negative = inhibition": "inactive: 7.27%"},
      {"smiles": "CN(CC(=O)Nc1ccccc1Br)Cc1nc2ccccc2c(=O)[nH]1", "Potency": "inconclusive: 10 µM [inhibitor, full curve, poor fit]"},
      {"smiles": "Nn1c(Cc2ccccc2F)n[nH]c1=S", "activity change, negative = inhibition": "inactive: -0.278%"},
      {"smiles": "CCN(Cc1nc2ccccc2c(=O)[nH]1)Cc1nc2ccsc2c(=O)[nH]1", "Potency": "inconclusive: 39.8 µM [inhibitor, partial curve]"},
      {"smiles": "Cc1cc(N/N=C(/CCC(=O)O)C(=O)O)nc2ccccc12", "Potency": "inconclusive: 100 µM [inhibitor, partial curve, poor fit]"},
      {"smiles": "CCN1CCN(CC(=O)Nc2c(OC)cccc2OC)CC1", "activity change, negative = inhibition": "inactive: 4.73%"},
      {"smiles": "Cc1[nH]n(-c2ccccc2)c(=S)c1C=Nc1ccc([N+](=O)[O-])cc1", "Potency": "inconclusive: 63.1 µM [inhibitor, single point]"},
      {"smiles": "CCc1nnc(N/N=C/c2cc(C)c(C)cc2C)n1N", "activity change, negative = inhibition": "inactive: -5.02%"},
      {"smiles": "CCC(Sc1nc2ncccc2[nH]1)C(=O)NCCc1ccccc1", "note": "(stereo not given)", "activity change, negative = inhibition": "inactive: -5.62%"},
      {"smiles": "Cc1ccsc1C1C(C#N)=C(N)OC2=C1C(=O)CCC2", "note": "(stereo not given)", "Potency": "inconclusive: 79.4 µM [inhibitor, single point]"},
      {"smiles": "CN(C)CCCNCC(=O)c1c(-c2ccccc2)n(C)c2ccccc12", "activity change, negative = inhibition": "inactive: 4.97%"},
      {"smiles": "COCCN(C(=S)Nc1ccccc1OC)C1CCN(C(C)C)CC1", "activity change, negative = inhibition": "inactive: 2.95%"},
      {"smiles": "C[C@H](NC(=O)c1cc2c(cn1)[nH]c1ccccc12)C(=O)O", "activity change, negative = inhibition": "inactive: -7.05%"},
      {"smiles": "COC(=O)c1ccc(CC(=O)c2c(C)cc(O)cc2O)o1", "Potency": "inconclusive: 63.1 µM [inhibitor, partial curve, poor fit]"},
      {"smiles": "Cc1cccc(N(CC(=O)N/N=C/c2cc([N+](=O)[O-])ccc2Cl)S(C)(=O)=O)c1C", "Potency": "inconclusive: 6.51 µM [inhibitor, full curve]"},
      {"smiles": "CCc1nnc(NC(=O)CSc2nncc(=O)n2N)s1", "activity change, negative = inhibition": "inactive: 6.63%"},
      {"smiles": "O=[N+]([O-])c1ccc(N/N=C/c2ccc[nH]2)cc1", "Potency": "inconclusive: 100 µM [inhibitor, partial curve]"},
      {"smiles": "CC(C)(C)c1ccc(OCC(O)CN2CCN(C(=O)c3ccccc3)CC2)cc1", "note": "(stereo not given)", "activity change, negative = inhibition": "inactive: -2.3%"},
      {"smiles": "CSS(=O)(=O)c1cccc2cccnc12", "Potency": "inconclusive: 20 µM [inhibitor, single point]"},
      {"smiles": "COc1cc(C(=O)NC(=S)Nc2ccc([N+](=O)[O-])cc2)cc(OC)c1OC", "activity change, negative = inhibition": "inactive: 4.82%"},
      {"smiles": "CCn1ncc(NC(=S)Nc2ccc(OC)c(OC)c2)c1C(N)=O", "activity change, negative = inhibition": "inactive: -4.59%"},
      {"smiles": "CCn1c(C(C)NS(=O)(=O)c2ccc(Cl)cc2)n[nH]c1=S", "note": "(stereo not given)", "activity change, negative = inhibition": "inactive: 12.6%"}
    ]}
  ]
}
